Some of the results follow.

In the assay the target is T1, OsWOX13 (Oryza sativa, UniProt Q5QMM3 1-267).
T1 sequence: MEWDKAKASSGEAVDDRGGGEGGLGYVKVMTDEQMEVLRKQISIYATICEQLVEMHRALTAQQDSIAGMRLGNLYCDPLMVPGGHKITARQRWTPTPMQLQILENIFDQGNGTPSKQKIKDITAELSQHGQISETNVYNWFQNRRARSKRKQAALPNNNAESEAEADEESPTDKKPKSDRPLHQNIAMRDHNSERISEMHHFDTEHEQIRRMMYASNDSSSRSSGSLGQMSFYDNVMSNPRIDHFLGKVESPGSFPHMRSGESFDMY
In words: protein-binding microarray (RPBM); PBS, 2% BSA, 51.3 ng/ul salmon testes DNA, 50 uM zinc acetate, 200 nM TF, 25 C, 1 h; high values mean tight binding. Conditions: protein: recombinant; tags: N-terminal polyhistidine and DsRed monomer fusion (pET32a); label: CyDye5-dUTP incorporated in the synthesized complementary strand; 3' TTTTT single-stranded linker to array surface; dsDNA, one strand shown. The procedure, abridged: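 Polyhistidine-tagged DsRed fusions of transcription factors, joined at the N-terminus, were expressed in E. coli BL21-CodonPlus and isolated on Ni–NTA. They were incubated at 200 nM for 1 h at 25 °C on a custom Agilent array, double-stranded and BSA-blocked, in PBS with 2% BSA, salmon testes DNA and 50 µM zinc acetate. The binding signal is per-feature fluorescence intensity (arbitrary units) read on an Axon 4000B scanner after washing.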
Regarding “CTTAATTAAGTTCATGCATCTTATCTAGATGCACGGTGCACGGAGTCACCTAGTGCAG”, the binding signal was 28100 fluorescence intensity (a.u.).

Take “ATGGATAGATAGATAGATAGATAGATAGGATGAATGGAAGCGGAGTCACCTAGTGCAG”: the binding signal was 44700 fluorescence intensity (a.u.).

With “ATTTGACAGAAGAAAACTGTCGCAAGTTTTCTATCAATTCCGGAGTCACCTAGTGCAG”, the binding signal is 11100 fluorescence intensity (a.u.).

For the sequence “GGTAATTAAGCTAAGCGCCGAGACGCGCCGCCCCAGATATCGGAGTCACCTAGTGCAG”, the binding signal was 4600 fluorescence intensity (a.u.).

Take “AACCAAATATAAATTGAGTAGCAATTTCACAACTCATCATCGGAGTCACCTAGTGCAG”: the binding signal was 5080 fluorescence intensity (a.u.).

Regarding “TGGATTTTAAATTAAGTAAATTGCACCAGCGGTCCTTAAACGGAGTCACCTAGTGCAG”, the binding signal was 6480 fluorescence intensity (a.u.).

Regarding “CTGCTCCTGAGGGGTAGGGAGGGAGGGGAAGGAGCACGTTCGGAGTCACCTAGTGCAG”, the binding signal is 3610 fluorescence intensity (a.u.).

“TTAACCGCTTAATTATAACCGCCTCTCGGATTAGCGCGGCCGGAGTCACCTAGTGCAG”: the binding signal is 10500 fluorescence intensity (a.u.).

As for “TAGTAATAGATAGAGAAGCATAAATACCTCCATTATTTGTCGGAGTCACCTAGTGCAG”, the binding signal is 12000 fluorescence intensity (a.u.).

As to “GATGTGATTGAAAGTTTGTGTGTGTATGACAGTTTGATGTCGGAGTCACCTAGTGCAG”, the binding signal was 61700 fluorescence intensity (a.u.).

As to “GATTTGGGGATTTGGGGTTTGATTTAGGATGTGCATGCCACGGAGTCACCTAGTGCAG”, the binding signal is 7910 fluorescence intensity (a.u.).

Consider “AGTTGTCATCTGCAATCACTTGATGAGCTTGATTTGTAAGCGGAGTCACCTAGTGCAG”, for which the binding signal is 6720 fluorescence intensity (a.u.).

With “TGGATAGATTAGGAGGTGACTACTCCAAAACTGTAGGAGTCGGAGTCACCTAGTGCAG”, the binding signal is 17800 fluorescence intensity (a.u.).

Consider “GTACATAATTATGGAGGAGGGGAATATACCGGAGGGTAAGCGGAGTCACCTAGTGCAG”, for which the binding signal is 14100 fluorescence intensity (a.u.).

Take “AACTTAATTGTCTTTCTAGTTTTGTCCCGAGTCAAACATTCGGAGTCACCTAGTGCAG”: the binding signal was 37100 fluorescence intensity (a.u.).

For the sequence “CTGGGATTGAACGGATTGGGTTATGGACTGATATGGGCCGCGGAGTCACCTAGTGCAG”, the binding signal is 33700 fluorescence intensity (a.u.).

Consider “ATTATTAATTTACAAATACAATTTACAGAAAATTTGAAATCGGAGTCACCTAGTGCAG”, for which the binding signal was 8210 fluorescence intensity (a.u.).

“ACCTAAATTAGACAGTTTTGTATAGTTTAGGGGTAAAGATCGGAGTCACCTAGTGCAG”: the binding signal was 34800 fluorescence intensity (a.u.).

Consider “AGCCTAATTAATCCATAATTAACATATGTTTACTGTAGCACGGAGTCACCTAGTGCAG”, for which the binding signal was 53000 fluorescence intensity (a.u.).

Consider “CTTGATTTTCTTCTCGGCACAAGAAATATTATTATTGCAACGGAGTCACCTAGTGCAG”, for which the binding signal was 15000 fluorescence intensity (a.u.).

Consider “TCCTTTATTTAATTTTCCCAACGCGTGAAGTACAGTGCCCCGGAGTCACCTAGTGCAG”, for which the binding signal is 4870 fluorescence intensity (a.u.).

Turning to “TGGACACGACTAGATTGACGCGTGGGTTTCTCCACACATACGGAGTCACCTAGTGCAG”, the binding signal was 15100 fluorescence intensity (a.u.).

For the sequence “AGCATTAAATTATATTTCTATATGAACTCTAACCTCTATTCGGAGTCACCTAGTGCAG”, the binding signal was 3370 fluorescence intensity (a.u.).

As to “TGTGGCTAAATTTATCAATTGAATGGGCTAGAGGCACGCTCGGAGTCACCTAGTGCAG”, the binding signal was 17400 fluorescence intensity (a.u.).

In the case of “AAAGTTAATTTCCATCAGTTTCGGACATAAAACCGGCCTTCGGAGTCACCTAGTGCAG”, the binding signal was 19200 fluorescence intensity (a.u.).

Regarding “AAATAATTTTCACATACCATAAGTAAGATCCGGTGCTAGCCGGAGTCACCTAGTGCAG”, the binding signal is 3800 fluorescence intensity (a.u.).

“TAGCAAATAATTAATTAATCACGTGCTAATGGACTGCTTCCGGAGTCACCTAGTGCAG”: the binding signal was 37900 fluorescence intensity (a.u.).

In the case of “CTTATTGACTTATTGTTTTACGAAAACACGGATACATTTTCGGAGTCACCTAGTGCAG”, the binding signal was 3150 fluorescence intensity (a.u.).

In the case of “AAGCCTAATTAATCATCCATTAGCAAATATTTACTGTAGTCGGAGTCACCTAGTGCAG”, the binding signal is 20600 fluorescence intensity (a.u.).

Turning to “GATGTATTGATGGATTCTATGGATGTATGGAATGATGTTGCGGAGTCACCTAGTGCAG”, the binding signal is 6390 fluorescence intensity (a.u.).

Regarding “ATCAAATTAAAATTAAGTTTCAACATTTATATTTTAGCTACGGAGTCACCTAGTGCAG”, the binding signal is 13500 fluorescence intensity (a.u.).

“AGCCGATTAGTTATTGACTGATTTATTCCGGTTTTGATGTCGGAGTCACCTAGTGCAG”: the binding signal was 45400 fluorescence intensity (a.u.).

As for “GAGAAAATCATTAAGATGATAGGTTGTTGGATTGAAATATCGGAGTCACCTAGTGCAG”, the binding signal is 7050 fluorescence intensity (a.u.).

Consider “AATAGACTATAAATTTATAGTAATCGGAGTCCGAACGAAGCGGAGTCACCTAGTGCAG”, for which the binding signal was 7120 fluorescence intensity (a.u.).

On to “ACGCGATTGATCTATCTCCCCTCGTCGCGCCACGACGCGACGGAGTCACCTAGTGCAG”, for which the binding signal is 5630 fluorescence intensity (a.u.).

With “TCTGATCAGTCCATTGATTACAGAAACCATATGGAATCTGCGGAGTCACCTAGTGCAG”, the binding signal was 23200 fluorescence intensity (a.u.).

Consider “GAAACTAACTGCCATTCTGCGACAACATGGACGTACAGCTCGGAGTCACCTAGTGCAG”, for which the binding signal is 6040 fluorescence intensity (a.u.).

With “GGGGAATAATTGTATATATCGTACAAAGCTTACGGAATGTCGGAGTCACCTAGTGCAG”, the binding signal is 8630 fluorescence intensity (a.u.).

In the case of “AAATGACATGATAGGTTAATATGTAATATATCACTTCACACGGAGTCACCTAGTGCAG”, the binding signal is 7620 fluorescence intensity (a.u.).

In the case of “GATTGATTTGATTGATTGCTTGATTGGTTAATTGGTTGATCGGAGTCACCTAGTGCAG”, the binding signal is 51600 fluorescence intensity (a.u.).

As to “CTGATGATGAGAAATACCACCAATTTGAGAGGGATTTATGCGGAGTCACCTAGTGCAG”, the binding signal was 4660 fluorescence intensity (a.u.).

As to “CAATAATTGATTCTACATATCCACATAATCACTAATTAACCGGAGTCACCTAGTGCAG”, the binding signal is 44100 fluorescence intensity (a.u.).

(Values after publication PMC7819943, “Rice protein-binding microarrays: a tool to detect cis-acting elements near promoter regions in rice”.)
